Test results: the RNAGym collection of RNA variant scans (doi:10.1073/pnas.2313332121)
Variants at the floor of the assay are shown more often than the library holds them.

B1: TPR 5TU (parent)
chain: GGAUCUUCUCGAUCUAACAAAAAAGACAAAUCUGCCACAAAGCUUGAGAGCAUCUUCGGAUGCAGAGGCGGCAGCCUUCGGUGGCGCGAUAGCGCCAACGUUCUCAACUAUGACACGCAAAACGCGUGCUCCGUUGAAUGGAGUUUAUCAUG

Variants of: B1
Test: polymerase ribozyme fitness, log enrichment relative to wild type (log ratio); higher = more active; in vitro selection for triplet polymerase activity
In short: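 One round of in vitro selection, in triplicate, was applied to PCR-built, transcribed mutant libraries of each subunit of a heterodimeric triplet polymerase ribozyme. The steps were annealing with a biotinylated primer, partner subunit and triplets, incubation frozen at −7 °C, gel excision of extended constructs, streptavidin-bead capture and RT-PCR. Fitness is the logarithm, base 2, of genotype enrichment over wild-type enrichment from inverse-variance-weighted replicate averages of Illumina-sequenced inputs and outputs, keeping genotypes with ≥10 input reads and ≥1 read per output.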

Variant	polymerase ribozyme fitness (log ratio)
GGAUCUUCUCGAUCUAACAAAAAAGACAAAUCUGCCACAAAGCUUGAGAGCAUCUUCGGAUGCAGAGGCGGCGGCCUUCGGUGGCGCGAUAGCGCCAACGUUCUCAACUAUGAUACGCAAAACGCGUGCUCCGUUGAAUGGAGUUUAUCAUG	-2.66
GGAUCUUCUCGAUCUAACAAAAAAGACAAAUCUGCCACAAAGCUUGAGAGCAUCUUCGGAUGCAGAGGCGGCGGCCUUCGAUGGUGCGAUAGCGCCAACGCUCUCAACUAUGACACGCAAAACGCGUGCUCCGUUGAAUGGAGUUUAUAAUG	≤ -4.2
GGAUCUUCUCGAUCUAACAAAAAAGACAAAUCUGCCACAAAGCUUGAGAGCAUCUUCGGAUGCAGAGGCGGCGGCCUUCGGUGGCACGAUAGCGCCAACGUUCUCAACUAUGACACGCAAAACGCGUGCUCCGUUGUAUGGAGUUUAUCAUG	≤ -4.2
GGAUCUUCUCGAUCUAACAAAAAAGACAAAUCUGCCACAAAGCUUGAGAGCAUCUUCGGAUGCAGAGGCGGCGGCCUUCGGUGGCGCCAUAGCGCCAAAGUUCUCAACUAUGACACGCAAAACGCGUGCUCCGUAGAUUGGAGUUUAUCAUG	≤ -4.2
GGAUCUUCUCGAUCUAACAAAAAAGACAAAUCUGCCACAAAGCUUGAGAGCAUCUUCGGAUGCAGAGGCGGCGGCCUUCGGUGGCGCGAUAGCCCCAACGUUCUCAACUAUGACACGCAAAACGCGUGCUCCGUUGAACGGAGUUUAUCAUG	≤ -4.2
GGAUCUUCUCGAUCUAACAAAAAAGACAAAUCUGCCACAAAGCUUGAGAGCAUCUUCGGAUGCAGAGGCGGCGGCCCUCGGUGGCGCCAUAGCGCCAACGUUCUCAACUAUGACACGCAAAACGCGUGCUCCGUUGAAUGGAGUUUAUCAUG	≤ -4.2
GGAUCUUCUCGAUCUAACAAAAAAGACAAAUCUGCCACAAAGCUUGAGAGCAUCUUCGGAUGCAGAGGCGGCGGCCUUCGGUGGCGCGAUAGCGCCAACGUUCCCAACUAUGACACGCAAAACGCGUGCUCCGUUGAAUGGAGUUUAUCAUG	-0.284
GGAUCUUCUCGAUCUAACAAAAAAGACAAAUCUGCCACAAAGCUUGAGAGCAUCUUCGGAUGCAGAGGCGGCGGCCUUCGGUGGCGCGAUAGCGCCAACGUUCUCAACUAUGACACGCAAAACGCGUGCUCCGGUGAAUGGAGUUUAUCAUG	-2.2
GGAUCUUCUCGAUCUAACAAAAAAGACAAAUCUGCCACAAAGCUUGAGAGCAUCUUCGGAUGCAGAGGCGGCGGCCUUCGGUGGCGCGAUAGCGCCAACGUUCUCAACUAUGACACGCAAAACGCGUGCUCCGUUGAAUGGAGCUUAUCCUG	≤ -4.2
GGAUCUUCUCGAUCUAACAAAAAAGACAAAUCUGCCACAAAGCUUGAGAGCAUCUUCGGAUGCAGAGGCGGCGGCCUUCGGUGGCGCGAUAGCGCCAACGUUCUCAACUAUGACACGCAAAACGCGUGCUCCGUUGAAUGGAGUGUAUCAUG	-0.0134
GGAUCUUCUCGAUCUAACAAAAAAGACAAAUCUGCCACAAAGCUUGAGAGCAUCUUCGGAUGCAGAGGCGGCGGCCUUCGGUGGCGCGAUAGCGCCAACGUUCUCAACUAUGACACGCAAAACGCGUGCUCCGUUGAAUGGAGUUUAACAUG	-3.81
GGAUCUUCUCGAUCUAACAAAAAAGACAAAUCUGCCACAAAGCUUGAGAGCAUCUUCGGAUGCAGAGGCGGCGGCCUUCGGUGGCGCGAUAGCGCCAACGUUCUCAACUAUGACACGCAAAACGCGUGCUCCGUUGAAUGGAGUUUACCGUG	≤ -4.2
GGAUCUUCUCGAUCUAACAAAAAAGACAAAUCUGCCACAAAGCUUGAGAGCAUCUUCGGAUGCAGAGGCGGCUGCCUUCGGUGGCGCGAUAGCGCCAACGUUCUCAACUAUGACACGCGAAACGUGUGCUCCGUUGAAUAGAGUUUAUCAUG	≤ -4.2
GGAUCUUCUCGAUCUAACAAAAAAGACAAAUCUGCCACAAAGCUUGAGAGCAUCUUCGGAUGCAGAGGCGGCUGGCUUCGGUGGCGCCAUAGCGCCAACGUUCUCAACUAUGACACGCAAAACGCGUGCUCCGUUGAAUGGAGUUUAUCAUG	≤ -4.2
GGAUCUUCUCGAUCUAACAAAAAAGACAAAUCUGCCACAAAGCUUGAGAGCAUCUUCGGAUGCAGAGGCGGCUGCCUUCGGUGGUGCGAUAGCGCCAACGUUCUCAACUAUGACACUCAAAACGCGUGCUCCGUUGAAUGGAGUUUAUCAUG	-0.841
GGAUCUUCUCGAUCUAACAAAAAAGACAAAUCUGCCACAAAGCUUGAGAGCAUCUUCGGAUGCAGAGGCGGCUGCCUUCGGUGGCGCGAUAGAGCCAACGUUCUCAACUAUGACACGCAAAACGCGUGCUCCGUUGAAUGGAGUUUAUCAUG	-3.39
GGAUCUUCUCGAUCUAACAAAAAAGACAAAUCUGCCACAAAGCUUGAGAGCAUCUUCGGAUGCAGAGGCGGCUGCCUUCGGUGGCGCGAUAGUGCCAACGUUCUCAACUAUGACACGCAAAACGCGUGCUCCGUUGAAUGGAGUUUAUCAUG	-1.62
GGAUCUUCUCGAUCUAACAAAAAAGACAAAUCUGCCACAAAGCUUGAGAGCAUCUUCGGAUGCAGAGGCGGCUGCCUUCGGUGGCGCGAUAGUGCCAACGUUAACAACUAUGACCCGCAAAACGCGUGCUCCGUUGAAUGGAGUUUAUCAUG	≤ -4.2
GGAUCUUCUCGAUCUAACAAAAAAGACAAAUCUGCCACAAAGCUUGAGAGCAUCUUCGGAUGCAGAGGCGGCUGCCUUCGGUGGCGCGAUAGCGACAACGUUCGCAACUAUGACACGCAAAACGCGUGCUCCGUUGAAUGGAGUUUAUCAUG	-4.05

Variant	polymerase ribozyme fitness (log ratio)
GGAUCUUCUCGAUCUAACAAAAAAGACAAAUCUGCCACAAAGCUUGAGAGCAUCUUCGGAUGCAGAGGCGGCUGCCUUCGGUGGCGCGAUAGCGCCAAAGUUGUCAACUAUGAUACGCAAAAGGCGUGCUCCGUUGAAUGGAGUUUAUCAUG	≤ -4.2
GGAUCUUCUCGAUCUAACAAAAAAGACAAAUCUGCCACAAAGCUUGAGAGCAUCUUCGGAUGCAGAGGCGGCUGCCUUCGGUGGCGCGAUAGCGCCAACGUUCUCAAUUAUGACACGCAAAACGCGUGCUCCGUUGAAUGGAGUUUAUGAUA	≤ -4.2
GGAUCUUCUCGAUCUAACAAAAAAGACAAAUCUGCCACAAAGCUUGAGAGCAUCUUCGGAUGCAGAGGCGGCUGCCUUCGUUGGCGCGAUAGCGCCAACGUUCUCGACUAUGACGCGCUAAACGCGUGCUCCGUUGAAUGGAGUUUCUCAUG	≤ -4.2
GGAUCUUCUCGAUCUAACAAAAAAGACAAAUCUGCCACAAAGCUUGAGAGCAUCUUCGGAUGCAGAGGCGGCUGCCUUCGGUAGCGCGAUAGCGCCAAUGUUCUCAACUAUGACACCCAAAACGCGUGCUGCGUCGAAUGGAGUGUAUCAUG	≤ -4.2
GGAUCUUCUCGAUCUAACAAAAAAGACAAAUCUGCCACAAAGCUUGAGAGCAUCUUCGGAUGCAGAGGCGGCUGCCUUCGGUGCCGCGAUAGCGCCAACGUUCGCAACUAUGACACGCAUAACGCGUGCUCCCUUGAAUGAAGCUUAUCAUG	≤ -4.2
GGAUCUUCUCGAUCUAACAAAAAAGACAAAUCUGCCACAAAGCUUGAGAGCAUCUUCGGAUGCAGAGGCGGCUGCCUUCGGUGGCGCUAUAGCGCAAACGUUGUCAACUAUGACACGCAAAACGCGUGCUCCGUUGAAUGGAGUUUAUCAUG	≤ -4.2
GGAUCUUCUCGAUCUAACAAAAAAGACAAAUCUGCCACAAAGCUUGAGAGCAUCUUCGGAUGCAGAGGCGGCUGCCUUCGGUGGCGCGAGAGCGCGAACGUUCUCAACUAUGACACGCAAAACGCGUGCCCCGUUGAAGGGAGUUUAUCAUG	≤ -4.2
GGAUCUUCUCGAUCUAACAAAAAAGACAAAUCUGCCACAAAGCUUGAGAGCAUCUUCGGAUGCAGAGGCGGCUGCCUUCGGUGGCGCGAUAGCGCCAACGUGCUCAACUAUGACACGCAAAACGCGUGCUCCGUUGAAUGGAGUUUAUCAUG	≤ -4.2
GGAUCUUCUCGAUCUAACAAAAAAGACAAAUCUGCCACAAAGCUUGAGAGCAUCUUCGGAUGCAGAGGCGGCAACCUUCGGUGGCGCGUUAGGGCCAACGUUCUCAACUAUGACACGCAAAACGCGUGCUCCGUUGAAUUGAGUUUAUCAUG	≤ -4.2
GGAUCUUCUCGAUCUAACAAAAAAGACAAAUCUGCCACAAAGCUUGAGAGCAUCUUCGGAUGCAGAGGCGGCAACCUUCGGUGGCGCGAUGGCGCCAACGUUCUCAACUAUGACACGCAAAACGCGUGCUCCGUUGAAUGGAGUUUAUCAUG	≤ -4.2
GGAUCUUCUCGAUCUAACAAAAAAGACAAAUCUGCCACAAAGCUUGAGAGCAUCUUCGGAUGCAGAGGCGGCAACCUUCGGUGGCGCGAUGGCGCAAAGGUUCUCAACUAUGACACGCAAAACGCGUGCUCCGUUGAAUGGAGUUUAUCAUG	≤ -4.2
GGAUCUUCUCGAUCUAACAAAAAAGACAAAUCUGCCACAAAGCUUGAGAGCAUCUUCGGAUGCAGAGGCGGCAACCUUCGGUGGCGCGAUAGCGCCUACGUUAUCAACUAUGACACGCAAAACGUGUGCUCCGUUUAAUGGAGUGUAUCAUG	≤ -4.2
GGAUCUUCUCGAUCUAACAAAAAAGACAAAUCUGCCACAAAGCUUGAGAGCAUCUUCGGAUGCAGAGGCGGCAACCUUCGGUGGCGCGAUAGCGCCAACGUUCUCGACUAUGACACGCAAAUCGCGUGCUCCGUUGAAUGGAGUUUAUCAUG	≤ -4.2
GGAUCUUCUCGAUCUAACAAAAAAGACAAAUCUGCCACAAAGCUUGAGAGCAUCUUCGGAUGCAGAGGCGGCAACCUUCGGUGGCGCGAUAGCGCCAACGUUCUCAACUCUGACACGCAAAACGCGUGCUCCGUUGAAUGGAGUUUAUCAUG	≤ -4.2
GGAUCUUCUCGAUCUAACAAAAAAGACAAAUCUGCCACAAAGCUUGAGAGCAUCUUCGGAUGCAGAGGCGGCAAGCUUCGGUUGCGCGAUAGCGCCGACGUUCUCAACUAUGACACGCAAAACGCGUGCUCCGUUGAAUGGAGUUUAUCAUG	≤ -4.2
GGAUCUUCUCGAUCUAACAAAAAAGACAAAUCUGCCACAAAGCUUGAGAGCAUCUUCGGAUGCAGAGGCGGCAACCUUCGGUGGGGCGAUAGCGCCAACGUUCUCAACUAUGACACGCAAAACGCGUGCUCCGUUGAAUGAAGUUUAUCAUG	≤ -4.2
GGAUCUUCUCGAUCUAACAAAAAAGACAAAUCUGCCACAAAGCUUGAGAGCAUCUUCGGAUGCAGAGGCGGCAACCUUCGGUGACGCGGUAGCGCCAACGUUCUCAACUAUGACACGCAAAACGCGUGCUCCGUUGAAUGGAGUUUAUCAUG	≤ -4.2
GGAUCUUCUCGAUCUAACAAAAAAGACAAAUCUGCCACAAAGCUUGAGAGCAUCUUCGGAUGCAGAGGCGGCAACCGUCGGUAGCGCGAUAGCGCCAACGUUCUCAACUAUGACACGCAAAACGCGUGCUCCGUUGAAUGGAGUUUAUCAUG	≤ -4.2
GGAUCUUCUCGAUCUAACAAAAAAGACAAAUCUGCCACAAAGCUUGAGAGCAUCUUCGGAUGCAGAGGCGGCAACCUUCGGGGGCGCGAUAGCUCCAACGUUCUCAACUAUGACACGCAAAACGCGUGCUCCGUUAAAUGGAGUUUAUCAUG	≤ -4.2
